Assay results as given in the RNAGym collection of RNA variant scans (doi:10.7554/elife.90254).
Read counts are not given, so values of variants with three or more changes are uncertain.

B1: OR4K15 (parent)
chain: GUUAACGGUCAUAGGCCAUGGAAACUAGGAGCACCAUUUCGCUGCCAGUGAAGAAAUGAACAAAGAAAAUCUGGGCCAGGCAGGCAUCAAAAGAAAUAGUCUUGCGCUCAACCAGAAAGUCUGUAAUCAUUUUAAGGGUA

Variants of: B1
Test: self-cleavage, relative activity (ratio to wild type); higher = more cleavage; in vitro, sequencing; the parent is a self-cleaving ribozyme

| Variant | self-cleavage |
| --- | --- |
| GUUAACGGUCAUAGGCCAUGGAAACUAGGAGCACCAUUUCGCUGCCAGUGAGGAAGUGAUCAAAGAAAAUCUGGGCCAGGCAGGCAUCAAAAGAAAUAGUCUUGCGCUCAACCAGAAAGUCCGUGAUCAUAUUAAGGGUA [A52G A56G A60U U122C A125G U131A] | 0.9 |
| GUUAACGGACAUAGGCCAUGGAAACUAGGAGCACCAUUUCGCUGCCAGUGAAGAAAUGAACAAAGAAAAUCCGGGCCAGGCAGGCAUCAAAAGAACUAGUCUUGCGCUCAACCAGAAAGUCUGUAAUCAUUUUAAGGGUA [U9A U72C A96C] | 0.08 |
| GUUAACGGUCAUAGGCCAUGGAAACUAGGAGCACCAUAUCGCGGCCAGCGAAGGAAUGAACAAAGAAAAUCUGGGCCAGGCAGGCAUCAAAAGAAAUAGUCUUGCGCUCAACCAGAAAGUCUGUAAUCAUUUUAAGGGUA [U38A U43G U49C A54G] | 1.67 |
| GUUAACGGUCAUAGGCCAUGGAAACUAGGAUCACCAUUCCGCUGCCGGUGAAGAAAUGAACAAAGAAAAUCCGGGCCGGGCAGGCAUCAAAAGAAAUAGUCUUGCGCUCAACCAGAAAGUCUGUAAUCAUUUUAAGGGUA [G31U U39C A47G U72C A78G] | 0.35 |
| GUUAACGGUCAUAGGCCAUGGAAACUAGGAGCACCAUUUCGCUGCCAGUGAGGAAAUGAACAAAGAGAAUCUGGGCCAGGCAGGCACCAAAAGAAAUAGUCUUGCGCUCAACCAGAAAGUCUGUAAUCAUUUUAAGGGUA [A52G A67G U87C] | 1.25 |
| GUUAACGGUCAUAGGCCAUGGUAACUAGGAGCACCAUUUCGCUGCCAGUGAAGAAAUGAACAAAGAAAAUCUGGGCCAGGCAGGCUUCGAAAGAAAUAGUCUUGCGCUCAACCAGAAAGUCUGUAAUCAUUUUAAGGGUA [A22U A86U A89G] | 2.13 |
| GUUAACGGUCAUAGGCCAUGGAAACUAGGAGCACCAUUUCGCUGCCAGUGAGGAAAUGAACAAAGAAAAUCUGGGCUAGGCCGGCAUCAAAAGAAAUAGUCUUGCGCUCAACCAGAAAGUCUGUAAUCAUUUUAAGGGUA [A52G C77U A82C] | 0.15 |
| GUUAACGGUCAUAGGCCAUGGAAACUAGGAGCACCAUGUCGCUGCCAGUGAAGAAAUGAGCAAAGAAAAUCUGGGCCAGGCAGGCAUCAAAAGAAAUAGUCUUGCGCUCAACCAGAGAGUCUGUAAUCAUUUUAAGGGUA [U38G A60G A117G] | 1.71 |
| GUUAACGGUCAUAGGCCAUGGAUACUAGGAGCACCAUUUCGCUGCCAGUGAAGAAAUGAACUAAUAAAAUCUGGGCCGGGCAGGCAUCAAAAGAGAUAGUCUUGCGCUCAACCAGAAAGUCUGUAAUCAUUUUAAGGGUA [A23U A62U G65U A78G A95G] | 0.39 |
| GUUAACGGUCAUAGGCCAUGGAAACUAGGAGCACCAUUUCGCUGCCAGUGUAGAAAUGAACAAAGAAAAUCAGGGCCAGGCAGGCAUCAAAAGAAAUAGUCUUGCGCUCAACCAGAAAGUCUGAAAUCAUUUUAAGGGUA [A51U U72A U124A] | 0.14 |
| GUUAGCGGUCAUAGGCCAUGGAAACUAGGAGCACCAUUUCGCUGCCAGUGAAGAAAUGAACAAAGAAAAUCUGGGCCAGGCAGGCAUCAAAAGAAACAGUCUUGCGCUCAGCCAGAAAGUCCGUAAUCAUUUUAAGGGUA [A5G U97C A111G U122C] | 0.04 |
| GUUAACGGUCGUAGGCCAUGGAAACUAGGAGCACCAUUUCGCUGCCAGUGAAGAAAUGAACAAAGAGAAUCUGGGCCAGGCAGGCAUCGAAAGAAAUAGUCUUGCGCUCAACCAGAAAGUCUGUAAUCAUUUUAAGGGUA [A11G A67G A89G] | 0.82 |
| GCUAACGGUCAUAGGCCUUGGAAACUAGGAGCACCAUUUCGCUGCCAGUGAAGAAGUGAACAAAGAAAAUCUGGGCCAGGCAGGCAUCAAAAGAAAUAGUCUUGCGCUCAACCAGAAAGUCUGUAACCAUUUUAAGGGUA [U2C A18U A56G U127C] | 0.26 |
| GUUAACGGCCAUAGGCCACGGAAACUAGGAGCACCAUUUCGCUGCCAGUGAAGAAAUGAACAAAGAAAAUCUGGGCCAGGCAGGCACCAAAAGAAAUAGUCUUGCGCUCAACCAGAAAGUCUGUAAUCAUUUUAAGGGUA [U9C U19C U87C] | 1.85 |
| GUUAACGGUCAUGGGCCGUGGAAACUAGGAGCACCAUUUCGCUGCCAGUGAAGAAAUGAACAAAGGAAAUCUGGGCCAGGCAGGCAUCAAAAGAAAUAGUCUUGCGCUCAACCAGAAAGUCUGUAAUCAUUUUAAGGGUA [A13G A18G A66G] | 1.67 |
| GUUAACGGUCACAGGCCAUGGAAACUAGGAGCACCAUUUCGCUGCCAGUGAAGAAAUGAACAAAGAAAAUCUGGGCCAGGCAGGCAUCAAAGGAAAUAGUCUUGCGCCCAUCCAGGAAGUCUGUAAUCAUUUUAAGGGUA [U12C A92G U108C A111U A116G] | 0.01 |
| GUUAACGGUCAUAGGCCAUGGAAACUAGGAGCACCAUUUCGCUGCCAGUGAAGAAAUGGCCAAAGAAAAUCUGGGCCAGGCAGGCAUCAAGAGAAAUAGUCUUGCGCUCAACCAGAAAGUCUGUAAUCAUUUUAAGGGUA [A59G A60C A91G] | 0.89 |
| GUUAACGGUCAUAGGCCACGGAAACUAGGAGCACCAUUUCGCUGCCAGUGAAGAAAUGAACAAAGAAAAUCUGGGCCAGGCAGGCAUCAAGAGAAAUAGUCUUGCGCUCAACCAGAGAGUCUGUAAUCAUUUUAAGGGUA [U19C A91G A117G] | 0.52 |
| GUUAACGGUCAUAGGCCAUGGAAACUAGGGGCACCAUUUCGCCGCCAGUGAAGAAAUGAACAAAGAAAUUCUGGGCCAGGCAGGCAUCAAAAGAAAUAGUCUUGCGCUCAACCAGAAAGUCUGUAAUCAUUUUAAGGGUA [A30G U43C A69U] | 1.37 |
| GUUAACGGUCAUGGGCCAUGGAAACUAGGAGCACCAUUUCGCUGCCAGUGAAGAAAUGAACAAAGAAAAUCUGGGCCAGGCUGGCAUCAAAAGAAAUAGUCUUGCGCUCAACCAGAAAGUCAGUAAUCAUUUUAAGGGUA [A13G A82U U122A] | 0.33 |
| GCUAACGGACAUAGGCCAUGGAAACUAGGAGCACCAUUUCGCUGCAAGUGAAGAAAUGAACAAAGAGAAUCUGGGCCAGGCAGGCAUCAAAAGAAAUAGUCUUGCGCUCAACCAGAAAGUCUGUAAUCAUUUUAAGGGUA [U2C U9A C46A A67G] | 0.98 |

| Variant | self-cleavage |
| --- | --- |
| GUUAACGGUCAUAGGCCAUGGAAACUAGGAGCACCAUUUCGCUGCCAGUGAAGAAAUGAACGAAGAAAAUCUGGGCCAGGCAGGCAUCAAAAGAAACAGUCUUGCGCUCAACCAGAAAGUCUGUAACCAUUUUAAGGGUA [A62G U97C U127C] | 0.25 |
| GUUAGCGGUCAUAGGCCAUGGAAACUAGGAGCGCCAUUUCGCUGCCAGUGAAGAAAUGAACAAAGAAAAUCUGGGCCAGGCAGGCAUCAAAAGAAAUAGUCUUACGCUCAACCAGAAAGUCUGUAAUCAUUUUAAGGGUA [A5G A33G G104A] | 0.13 |
| GCUAACGGUCAUAGGCCAUGGAAACUAGGAGCACCAUUUCGCUGCCAGUGGAGAAAUGAACAAGGAAAAUCUGGGCCAGGCAGGCAUCAAAAGAAAUAGUCUUGCGCUCAACCAGAAAGUCUGUGAUCAUUUUAAGGGUA [U2C A51G A64G A125G] | 0.12 |
| GUUAACGGUCAUAGGCCAUGGAAACUAGGAGCACCAUUUCGCUGCCAGUGAAGAAGUGAACAAAGAAAAUCUGGGCCAGGCAGGCAUCAAAAGAAUUAGUCUUGCGCUCAACCAGAAAGUCUGUAAUCGUUUUAAGGGUA [A56G A96U A129G] | 2.29 |
| GUUAACGGUCAUAGGCCAUGGAAACUAGGAGCACCAUUUCGCUGCCAGUGAAGAAAUGAACAAAGAAAAUCUGGGCCAGGCGGGCAUCAAAAGAAAUAGUCCUGCGCUCAACCAGAAUGUCUGUAAUCAUUUUAAGGGUA [A82G U102C A118U] | 0.06 |
| GUUAACGGUCAUAGGCCAUGGGAACUAGGAGCACCAUUUCGCUGCCAGUGAAGAAAUGAACAAAGAAAAUCUGGGCCUGGCAGGCAUCAAAAGAAAUAGUCUUGCGCUCAACCAGAAAGUCUGUAAUCAUUUUGAGGGUA [A22G A78U A134G] | 0.19 |
| GUUAACGGUCAUAGUCCAUGGAAACUAGGAGCACCAUUUCGCUGCCAGUAAAGAAAUGUACAGAGAAAAUCUGGGCCAGGCAGGCAUCAAAAGAAAUAGUCUUGCGCUCAACCAGAAAGUCAGUAAUCAUUUUAAGGGUA [G15U G50A A59U A63G U122A] | 0.11 |
| GUUAACGGUCAUAGGCCAUGGAAACUAGGAGCACCAUCUCGCUGCCAGAGAAGAGAUGAGCAAAGAAAAUCUGGGCCAGGCAGGCAUCAAAAGUAUUAGUCUUGCGCUCCACCAGAAAGUCUGCAAUCAUUUUAAGGGUA [U38C U49A A55G A60G A94U A96U A110C U124C] | 0.09 |
| GUUAACGGUCAUAGGCCAUGGAUACUAGGAGCACCAUUUCGCAGCCAGUGAAGAAAUGAACAAAGAAAAUCUGGGCCAGGCAGGCAUCAAAAGAAAUAGUCUUGCGCUCAACCAGAAAGUCUGUAAUCAUUCUAAGGGUA [A23U U43A U132C] | 0.96 |
| GUUAACGGUCAUAGGCCAUGGAAACUAGGAGCACCGUUUCGCUGCCAGUGAAGAAAUGAACAAAGAGAAUCUGGGCCAGGCAGGCAUCAAAAGAAAUAGUCUUGCGCUCAACCAGAAAGUCUGUAAUCAUUUUGAGGGUA [A36G A67G A134G] | 1.95 |
| GUUAACGGUCAUAGGCCAUGGAAACUAGGAGCACCAUUUCGCUGCCAGUGAAGAAAUGGACAAAGAAAAUCAGGGCCAGGCAGGCAUCAAAAGAAAGAGUCUUGCGCUCAACCAGAAAGUCUGUAAUCAUUUUAAGGGUA [A59G U72A U97G] | 0.12 |
| GUUAACGGUCUUAGGCCAUGGAAACUAGGAGCACCAUUUCGCUGCCAGUGAAGAAAUGAACAAAGAAAAUCUGGGCCAGGCAGGCAUCAAAAGAAAUAGUCUUGAGCUCAACCAGAAAGUCUGUAAUCAUACUAAGGGUA [A11U C105A U131A U132C] | 0.1 |
| GUUAACGGUCAUAGGCCAUGGAAACUAGGAGCACCAUUUCGCUGCCAGUGAAGAAAUGAACUAAGGAAAUCUGGGCCAGGCAGGCAUCAAAAGAAAUAGUCUUGCGCUCAACCAGAAAGUCUGUAAUCACUUUAAGGGUA [A62U A66G U130C] | 0.69 |
| GUUAACGGUCAUAGGCCAUGGAAACUAGGAGCACCAUUUCGCUGCCAGCGAAGAAAUGGACAAAGAAACUCUGGGCCAGGCAGGCAUCAAAAGAAGUAGUCUUGCGCUCAACCAGAAAGUCUGUAAUCAUUUUAAGGGUA [U49C A59G A69C A96G] | 0.71 |
| GUUAACGGUCAUAGGCCAUGGAAACUAGGAGCACCAUUUCGCUGCCAGUGAAGAAAUGAACAAAGAAAGUCUGGGCCAGGCAGGCAUCAAAAGAAAUAGUCUUGCGCCCGACCAGAAAGUCUGUAAUCAUUUUAAGGGUA [A69G U108C A110G] | 0 |
| GUUAACGGUCAUAGGCCAUGGAAACUAGGAGCGCCAUUUCGCUGCCAGUGAAGAAAUGAACAAAGAAAAUCUGGGCCAGGCAGGCAUCAAAAGAAAUAGUCUUGCGCUCAAUCAGAAAGUCUGUAAUCAUUUCAAGGGUA [A33G C112U U133C] | 0.02 |
| GUUAACGGUCAUAGGCCAUGGAAACUAGGAGCACCAUCUCGCUGCCAGUGGAGAAAUGGACAAAGAAAAUCUGGGCCAGGCAGGCAUCAAAAGAAAUAGUCUUGCGCUCAACCAGAAAGUCUGUAAUCAUCUUAAGGGUA [U38C A51G A59G U131C] | 1.17 |
| GUUAACGGUCAUAGGCCAUGGAAACUAGGAGCACCAUUCCGCUGCCAGUGAAGUAAUGAACAAAGAAAAUCUGGGCCAGGCAGGCAUCAAAAGAAAUAGUCUUGCGCUCAACCAGAAAGUCUGUAAUCAUCUUAAGGGUA [U39C A54U U131C] | 2.34 |
| GUUAACGGUCUUAGGCCAUGGAAACUAGGGGCACCAUUUCGCUGCCAGUGAGGAAAUGGACAAAGAAAAUCUGGGCCAGGCAGGCAUCAAAAGAAAUAGUCAUGCGCUCAACCAGAAAGUCUGUAAUCAUUUUAAGGGUA [A11U A30G A52G A59G U102A] | 1.56 |
| GUUAACGGUCAUAGGCCAUGGAAACUAGGGGCACCAUUUCGCUGCCAGUGAAGAAAUGAACAAAGAAAAUUUGGGUCAGGCGGGCAUCAAAAGAAAUAGUCUUGCGCUCAACCAGAAAGUCUGUAAUCAUUUUAAGGGUA [A30G C71U C76U A82G] | 0.52 |
